Measured values from the supplement of paper PMC9446081.
The whole screen tested about 39,000 compounds, of which about 220 (0.56%) showed activity. The list shows a part of the results.

What follows are molecules tested on Escherichia coli K-12 BW25113 (assay: relative growth (OD600 normalised to plate interquartile mean) (fraction); higher = less growth inhibition, active = 0.2 or less). Details: 50 µM; LB; incubation time: overnight (16-24 h).
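Further: static incubation at 37 °C against the wild-type strain, values averaged over two biological replicates.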

SMILES	relative growth
C[C@@H]1CN([C@@H](C)CO)C(=O)c2c(c3ccccc3n2C)-c2ccccc2CO[C@H]1CN(C)Cc1ccc(Oc2ccccc2)cc1	inactive: 1.01
Cc1noc(C)c1NC(=O)N(C)C[C@H]1Oc2c(NS(C)(=O)=O)cccc2C(=O)N([C@@H](C)CO)C[C@@H]1C	inactive: 1.01
COCCCN1C(=O)[C@@]2(Cc3ccccc31)c1ccccc1C(=O)N(Cc1ccccc1)[C@H]2c1ccc(CO)cc1	inactive: 1
COc1ccc(NC(=O)Nc2ccc3c(c2)C(=O)N([C@@H](C)CO)C[C@@H](C)[C@H](CN(C)Cc2ccc(Cl)c(Cl)c2)O3)cc1	inactive: 0.987
C[C@H](CO)N1C[C@H](C)[C@H](CN(C)S(=O)(=O)c2cn(C)cn2)Oc2c(NC(=O)C3CC3)cccc2C1=O	inactive: 0.94
C[C@H]1CCCCO[C@@H](CN(C)C(=O)Nc2ccc3c(c2)OCO3)[C@@H](C)CN([C@@H](C)CO)C(=O)c2cc(NC(=O)Nc3ccccc3)ccc2O1	inactive: 1.02
C[C@@H]1CN([C@H](C)CO)C(=O)c2cccc(NC(=O)Nc3ccc(C(F)(F)F)cc3)c2O[C@@H]1CN(C)Cc1ccc(C(=O)O)cc1	inactive: 0.967
C[C@@H]1CN([C@@H](C)CO)C(=O)c2cc(NC(=O)Nc3ccc(C(F)(F)F)cc3)ccc2O[C@@H](C)CCCCO[C@H]1CN(C)C(=O)CCCN(C)C	inactive: 0.914
COc1cccc(CNC(=O)C[C@@H]2C=C[C@@H](NC(=O)C3CCOCC3)[C@H](CO)O2)c1	inactive: 0.987
Cc1noc(C)c1NC(=O)Nc1ccc2c(c1)C(=O)N([C@@H](C)CO)C[C@H](C)[C@H](CN(C)Cc1ccc3c(c1)OCO3)OCCCC[C@@H](C)O2	inactive: 0.988
COc1ccc([Si](C)(C)[C@H]2[C@H](CCn3cc(CCO)nn3)O[C@@]3(C(=O)N(Cc4cccc(N5C(=O)c6cccc7cccc5c67)c4)c4ccccc43)[C@@H]2C)cc1	inactive: 1
NCCN1C(=O)c2[nH]nc(-c3ccccc3)c2[C@H]1c1ccccc1	inactive: 0.893
C[C@@H]1CN([C@H](C)CO)C(=O)c2cccc(NC(=O)Nc3ccc(F)cc3)c2O[C@H]1CN(C)Cc1ccc(C(F)(F)F)cc1	inactive: 0.94
C[C@@H]1CN([C@H](C)CO)C(=O)c2cc(NC(=O)c3ccccc3)ccc2O[C@@H](C)CCCCO[C@H]1CN(C)C(=O)CCC(F)(F)F	inactive: 0.998
Cc1ccc(S(=O)(=O)Nc2cccc3c2O[C@@H](CN(C)C(=O)Nc2ccc(C(F)(F)F)cc2)[C@@H](C)CN([C@H](C)CO)C3=O)cc1	inactive: 0.979
